1 molecule from paper PMC4913924 (PLoS ONE, 2016) can be followed below.

This experiment has as its target anti-EGFR GA201 mAb (human IgG1) (human). The experiment is described as follows: SPR; ProteOn XPR36; antibodies at 50 μg/mL immobilised on a GLC sensor chip by amine coupling; serial dilutions of FcγRIIIA isoforms in PBS, pH 7.4, 0.005% Tween 20, 3 mM EDTA passed over; KD from steady-state equilibrium binding. The conditions noted are these: both partners purified.

B1: recombinant human FcγRIIIA, high-affinity isoform 158V (receptor)
chain: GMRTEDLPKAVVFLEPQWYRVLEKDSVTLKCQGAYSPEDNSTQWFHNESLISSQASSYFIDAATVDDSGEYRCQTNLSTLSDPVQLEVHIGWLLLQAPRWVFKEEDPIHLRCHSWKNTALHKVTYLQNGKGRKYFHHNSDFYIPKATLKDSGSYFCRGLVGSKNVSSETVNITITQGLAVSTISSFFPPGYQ
modifications: Natural V158 allotype (precursor V176, historical offset 18). Soluble ectodomain assumed because the recombinant receptor was used as SPR analyte; limits are not printed and are taken from the …
As for B1, the Kd – broadly, the free concentration of one partner at which half of the binding sites on the other are occupied at equilibrium, for simple one-to-one binding – is 165 nM.
